Source: PMC4336329 (PLoS ONE, 2015)
In all, about 310,000 compounds went through this assay and about 2,200 (0.71%) showed an effect of 50% or more. The effect is printed as a negative number. The list shows a part of the results.

target: human ether-à-go-go-related gene (hERG) potassium channel (human, UniProt Q12809); test: primary screen, population patch clamp on CHO cells stably expressing hERG
Sequence (Q12809 whole entry, looked up): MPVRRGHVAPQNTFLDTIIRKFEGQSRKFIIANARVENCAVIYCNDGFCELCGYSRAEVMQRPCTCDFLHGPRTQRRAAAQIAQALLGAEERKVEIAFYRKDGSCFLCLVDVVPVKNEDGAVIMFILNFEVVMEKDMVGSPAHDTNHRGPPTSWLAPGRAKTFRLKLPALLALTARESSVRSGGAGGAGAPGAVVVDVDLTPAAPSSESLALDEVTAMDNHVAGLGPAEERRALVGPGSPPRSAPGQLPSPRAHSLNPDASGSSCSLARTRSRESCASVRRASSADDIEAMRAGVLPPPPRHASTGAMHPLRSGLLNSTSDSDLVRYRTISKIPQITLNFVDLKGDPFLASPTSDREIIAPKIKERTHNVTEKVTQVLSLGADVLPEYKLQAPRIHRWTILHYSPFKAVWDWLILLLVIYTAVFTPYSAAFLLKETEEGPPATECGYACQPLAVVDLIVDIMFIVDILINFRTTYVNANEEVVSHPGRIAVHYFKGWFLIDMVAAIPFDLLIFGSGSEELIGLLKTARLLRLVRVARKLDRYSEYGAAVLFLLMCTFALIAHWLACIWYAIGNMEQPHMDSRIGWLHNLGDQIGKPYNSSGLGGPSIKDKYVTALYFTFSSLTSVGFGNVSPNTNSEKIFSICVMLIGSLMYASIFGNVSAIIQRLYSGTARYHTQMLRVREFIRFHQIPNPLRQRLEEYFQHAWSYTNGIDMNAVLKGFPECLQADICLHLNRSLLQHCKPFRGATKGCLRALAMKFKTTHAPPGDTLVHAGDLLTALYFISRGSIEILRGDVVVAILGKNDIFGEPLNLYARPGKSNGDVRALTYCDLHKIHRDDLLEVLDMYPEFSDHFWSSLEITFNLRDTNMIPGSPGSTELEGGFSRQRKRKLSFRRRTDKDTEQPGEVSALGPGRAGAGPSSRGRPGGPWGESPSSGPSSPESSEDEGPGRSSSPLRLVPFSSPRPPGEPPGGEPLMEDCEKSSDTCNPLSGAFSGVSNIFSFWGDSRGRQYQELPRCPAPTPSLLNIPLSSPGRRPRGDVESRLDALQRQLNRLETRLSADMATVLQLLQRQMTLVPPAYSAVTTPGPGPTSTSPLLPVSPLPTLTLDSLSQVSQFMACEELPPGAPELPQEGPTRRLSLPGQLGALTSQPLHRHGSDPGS

SMILES | hERG current change (%, negative = inhibition) at 1uM
CC1(c2nnc(-c3ccc(F)cc3)o2)CC(c2cccnc2)=NO1 (centres unmarked) | 16.1%
Cn1ccsc1=NC(=O)c1cc(S(=O)(=O)N2CCOCC2)ccc1F | 0.934%
CCn1c(SCc2ccccc2)nc2ccccc2c1=O | 12.4%
CC1N=C2c3ccccc3N=C(SCc3cc(=O)n4cc(Cl)ccc4n3)N2C1=O (centres unmarked) | -40.2%
O=C(O)CCCNc1cc(N2CCC3(CC2)OCCO3)c2noc3c2c1C(=O)c1ccccc1-3 | 12.1%
Cc1[nH][nH]c(=O)c1C(c1c(C)[nH][nH]c1=O)c1cn(Cc2ccc(F)cc2)c2ccccc12 | 11.6%
O=c1oc2ccccc2c(O)c1Sc1ccc(Cl)cc1 | 7.9%
c1ccc(Oc2nc(-c3ccccn3)nc3ccccc23)cc1 | 7.47%
CC(=O)c1ccc(NC(=O)C2CCCNC2=O)cc1 (centres unmarked) | 19.9%
CCCNCc1cc(OCC)c(OCC(=O)Nc2ccccc2)cc1Br | 3.59%
COc1cccc(NC(=O)C(NCCc2ccc(S(N)(=O)=O)cc2)c2ccccc2)c1 (centres unmarked) | 2.07%
CCOC(=O)c1ccc(S(=O)(=O)NC2CCC(C)CC2)cc1 (centres unmarked) | 0.0443%
CC1CCN(c2c(NCC3CCC(C(=O)NC4CCCCCC4)CC3)c(=O)c2=O)CC1 (centres unmarked) | 9.32%
Nc1nnc(SCCCC(=O)c2ccc(Br)cc2)s1 | 9.04%
O=C(CCNS(=O)(=O)c1ccccc1F)N1CCN(C/C=C/c2ccccc2)CC1 | 1.31%
O=C(COc1ncnc2sccc12)NC1CCCc2ccccc21 (centres unmarked) | 15.5%
COc1cccc(CN2CC(C(=O)NC3CCCCCC3)CCC2=O)c1 (centres unmarked) | 12.5%
CCC(=Nc1ccc(OC)cc1OC)c1c(O)n(C2CCCCC2)c(=O)[nH]c1=O | 1.31%
Cc1ccc(N(Cc2cc3ccc(C)cc3[nH]c2=O)C(=O)c2ccco2)cc1 | 0.475%
CCN(CC)c1ccc(NC(=O)Nc2cccc3ccccc23)cc1 | 11.2%
Cc1cccc(N2CCN(C(=O)C3CCC(=O)N(Cc4ccccc4F)C3)CC2)c1C (centres unmarked) | 15.8%
COC(=O)Nc1ccc(Cn2cc(C(F)(F)F)ccc2=O)cc1 | 12.1%

SMILES | hERG current change (%, negative = inhibition) at 1uM
CCc1cccc(OC2OC(CO)C(O)C(O)C2NC(C)=O)c1 (centres unmarked) | 10.3%
CC(=O)NCC1(O)CCCC(C)C1 (centres unmarked) | 17.7%
C=CCNC(=O)c1ccc(NC(=O)C2=CSCCO2)cc1 | 0.0421%
O=[N+]([O-])c1ccc2c(c1)c1ccccc1n2CCO | -0.971%
CCCCN1C(=O)C(=O)NC[C@@H]1C(C)O (some centres unmarked) | 17.6%
CC(=O)N[C@@H](C)c1nc2ccccc2n1CCNC(=O)[C@H]1CCCN1c1nc(CN2CCCCC2)cs1 | 13.3%
Cc1nc(NC(=O)COc2ccccc2)sc1C(=O)Nc1cccc(Cl)c1 | 9.77%
CC(NC(=O)c1ccccc1NC(=O)CN1CCc2ccccc2C1)c1ccccc1 (centres unmarked) | 17.1%
c1ccc2c(c1)ncn2CCOCCOCCn1cnc2ccccc21 | 3.54%
Cc1cc(N2CCN(c3ccccc3)CC2)nc(-c2ccccc2)n1 | -15.1%
COc1cc(C(=O)NCC(=O)NCC2COc3ccccc3O2)cc(OC)c1OC (centres unmarked) | 10%
Cl.N[C@@H](Cc1ccc(O)cc1)c1nnc([C@H](CC(=O)O)NC(=O)C2CCNCC2)o1 | 12.5%
Cc1ccc(-c2ccc(=O)n(CC(=O)Nc3ccc4c(c3)OCCO4)n2)cc1 | -4.11%
COc1ccc(C(=O)Nc2nnc(-c3ccco3)s2)cc1 | 8.68%
O=C1CN(C(=O)CSc2nc3ccccc3c(=O)n2CC2CCCO2)c2ccccc2N1 (centres unmarked) | 4.54%
COc1cc(Cl)c(C)cc1NC(=O)[C@@H]1CCCN1C(=O)c1cccs1 | 8.4%
O=C(OCC(=O)N1CCc2ccccc2C1)c1ccc(Cl)c([N+](=O)[O-])c1 | 9.29%
Cc1ccccc1Cn1ccc(NC(=O)c2cc3ncc(Br)cn3n2)n1 | -6.66%
CCCN1CCN(S(=O)(=O)c2cc3c(cc2C)NC(=O)CO3)CC1 | 4.93%
CN(C)c1ccc(/C=C/C=C/c2sc3ccccc3[n+]2C)cc1.[O-][Cl+3]([O-])([O-])[O-] | 3.91%
CCCCn1c(N)c(N(CC(C)C)C(=O)CN2C(=O)NC3(CC(C)CC(C)(C)C3)C2=O)c(=O)[nH]c1=O (centres unmarked) | 4.33%
CCC(=O)N(Cc1ccco1)c1nc(-c2ccccc2)cs1 | 7.37%
